Measurements as given in PubChem BioAssay AID1468 (National Center for Advancing Translational Sciences (NCATS), 2008).
Out of some 280,000 compounds screened, about 1,100 (0.39%) were called active. The inconclusive results got no clear call from the source; some entries with a clear call stand among them for comparison. Calls come from the whole dose curve; as a rule, active = well fitted inhibition curve with a large enough effect; inconclusive = small, poorly fitted or top-dose-only effect, or effect the other way; inactive = flat fitted curve, though single readings scatter. Potencies of inconclusive entries are left out as doubtful fits.

Biological target: Microtubule-associated protein tau (Homo sapiens) (UniProt P10636)
Sequence of UniProt P10636 (P10636 whole entry, looked up): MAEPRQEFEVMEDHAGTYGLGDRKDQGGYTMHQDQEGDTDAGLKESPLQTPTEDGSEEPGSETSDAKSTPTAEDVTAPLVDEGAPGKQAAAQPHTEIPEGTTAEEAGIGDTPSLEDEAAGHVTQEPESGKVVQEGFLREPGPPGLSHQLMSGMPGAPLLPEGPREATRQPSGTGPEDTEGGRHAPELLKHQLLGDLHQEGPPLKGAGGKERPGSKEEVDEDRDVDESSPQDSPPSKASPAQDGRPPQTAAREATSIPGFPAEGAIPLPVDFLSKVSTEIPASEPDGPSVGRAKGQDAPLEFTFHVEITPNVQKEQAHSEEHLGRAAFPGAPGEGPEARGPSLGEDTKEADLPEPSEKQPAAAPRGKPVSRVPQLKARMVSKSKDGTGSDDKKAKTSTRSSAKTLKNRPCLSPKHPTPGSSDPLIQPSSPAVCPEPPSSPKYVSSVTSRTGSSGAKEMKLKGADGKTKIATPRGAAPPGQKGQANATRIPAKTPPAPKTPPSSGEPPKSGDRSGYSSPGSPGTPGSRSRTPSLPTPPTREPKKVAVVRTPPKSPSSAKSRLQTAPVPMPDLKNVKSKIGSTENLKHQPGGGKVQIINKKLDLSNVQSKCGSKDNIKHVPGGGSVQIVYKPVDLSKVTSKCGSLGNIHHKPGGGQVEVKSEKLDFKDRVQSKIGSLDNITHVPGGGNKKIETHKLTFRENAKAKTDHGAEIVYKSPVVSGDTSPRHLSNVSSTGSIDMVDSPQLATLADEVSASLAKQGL
Assay: qHTS for Inhibitors of Tau Fibril Formation, Fluorescence Polarization; note: nearly all actives have a fitted effect of over 55% in size
Details: K18 P301L tau heparin fibrillization, Alexa594 FP, 6 h; series mostly up to 57.7 µM; activity, negative = inhibition: at the top concentration
In short: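 Recombinant K18 P301L […], labeled with Alexa 594 at 0.24 uM over 15 uM unlabeled; heparin inducer 20 uM final; 37 C, 6 hr; FP endpoint.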
% is set by controls: 0 for no effect and ±100 for the full control effect; potency is the fitted concentration of half-maximal effect; tags give direction and shape of the fitted curve.

Row | SMILES | Potency | activity, negative = inhibition
1 | COc1cccc(-c2nc(=S)c3c(n2Cc2ccco2)CCCC3)c1 | inconclusive [inhibitor, single point] | –
2 | COc1cc(C2CC(=O)Nc3c2c(C)nn3-c2nncc(-c3ccccc3)n2)cc(OC)c1OC (configuration not stated) | inconclusive [activator, single point] | –
3 | CCOC(=O)Cc1csc(NC(=S)NC(=O)c2ccc(Cl)cc2)n1 | inconclusive [inhibitor, single point] | –
4 | O=C(Nc1cc(Cl)cc(Cl)c1)c1ccc(F)c(S(=O)(=O)NCc2ccccc2Cl)c1 | active: 8.91 µM | –
5 | CCOc1ccc(NS(=O)(=O)c2ccc3nc(-c4ccccc4)[nH]c3c2)cc1 | active: 20 µM | –
6 | O=C(Nc1ccccc1C(=O)OCC(=O)c1c[nH]c2ccccc12)c1ccco1 | inconclusive [inhibitor, partial curve] | –
7 | O=C(Nc1ccccc1)Nc1ccccc1 | – | inactive: -0.708%
8 | O=C(NC1CCN(Cc2ccccc2)CC1)C1COc2ccccc2O1 (configuration not stated) | inconclusive [inhibitor, single point] | –
9 | Cc1nn(-c2ccccc2)c2sc(C(=O)Nc3cccc(O)c3)cc12 | inconclusive [inhibitor, partial curve] | –
10 | Cc1csc2nc(COc3ccccc3NC(=O)c3ccccc3Cl)cc(=O)n12 | – | inactive: -8.86%
11 | COCCCN=C(c1ccco1)n1c(=S)nc(-c2ccco2)n(CCCOC)c1=S | inconclusive [inhibitor, partial curve] | –
12 | Cc1cccc(/N=C/c2sc3ccccc3c2O)n1 | inconclusive [activator, partial curve] | –
13 | CCN(CC)CC(O)COc1ccc2c(c1)OCO2 (configuration not stated) | inconclusive [inhibitor, single point] | –
14 | COc1ccc(OCCn2c(=O)sc3ccccc32)cc1 | – | inactive: -3.29%
15 | COc1cc(OC)cc(C(=O)OCC(=O)Nc2ccc(F)cc2F)c1 | inconclusive [inhibitor, single point] | –
16 | O=S(=O)(Nc1ccccc1)c1ccc(Oc2ncc(C(F)(F)F)cc2Cl)cc1 | inconclusive [inhibitor, partial curve, poor fit] | –
17 | CC1(C(=O)Nc2ncc(Cc3ccc(Br)cc3)s2)Cc2ccccc2C(=O)O1 (configuration not stated) | – | inactive: -17.1%
18 | COc1ccc(C(=O)CSc2ccc(-c3ccccc3)nn2)cc1 | – | inactive: 0.367%
19 | S=C(NCc1cccs1)Nc1cc(Cl)cc(Cl)c1 | active: 17.8 µM | –
20 | COc1ccc(Nc2ncnc3sc(-c4ccccc4)cc23)cc1OC | inconclusive [activator, full curve] | –
21 | O=C(O)Cc1sc(N/N=C\c2ccncc2)nc1-c1ccccc1 | inconclusive [activator, single point] | –
22 | CC(C)(C)C(=O)Nc1cccc(C(=O)OCc2cc(=O)n3nc(C4CCCCC4)sc3n2)c1 | – | inactive: 4.54%
23 | COC(=O)N1CCN(c2ccc(Cl)c(Cl)c2)CC1 | – | inactive: 5.85%
24 | N#C/C(=C\c1ccc(-c2cc(Cl)ccc2Cl)o1)C(=O)Nc1ccccc1C(=O)O | – | inactive: -3.88%

Row | SMILES | Potency | activity, negative = inhibition
25 | O=C(NNC(=S)Nc1ccccc1)C1CC1 | – | inactive: 1.68%
26 | CN1CCC(N(C)C(=S)NC(=O)c2cc(-c3cccc(Br)c3)nc3ccccc23)CC1 | inconclusive [inhibitor, single point] | –
27 | CC1(C)Cc2c(sc3c2c(=N)n(Cc2ccco2)c(=O)n3CC(=O)Nc2ccc(Cl)cc2)CO1 | inconclusive [inhibitor, partial curve] | –
28 | CCC(=O)Nc1cc(ON=C(C)C)cc([N+](=O)[O-])c1 | – | inactive: 9.61%
29 | O=c1c(C(c2ccc(F)cc2)c2c(O)nc3n(c2=O)CCCS3)c(O)nc2n1CCCS2 | inconclusive [inhibitor, partial curve, poor fit] | –
30 | COc1ccc(Nc2ccc(S(=O)(=O)N3CCCCC3)cc2[N+](=O)[O-])cc1Cl | – | inactive: 11.8%
31 | Cc1ccc(/C=C2/SC(=S)N(CC(=O)Nc3ncc(Cc4ccc(C)cc4)s3)C2=O)cc1 | inconclusive [inhibitor, single point] | –
32 | Cc1cccc(-n2nnnc2S(C)(=O)=O)c1 | inconclusive [inhibitor, full curve] | –
33 | ClC(Cl)(c1nnnn1-c1ccccc1)c1nnnn1-c1ccccc1 | active: 31.6 µM | –
34 | CCCC(NC(C)C(=O)N1C(C(=O)O)CC2CCCCC21)C(=O)OCC (configuration not stated) | – | inactive: 6.88%
35 | Cc1c(NC(=O)c2ccccc2F)cccc1-c1nc2cccnc2s1 | inconclusive [inhibitor, partial curve, poor fit] | –
36 | Cc1ccc(Nc2nc3ccccc3c3nncn23)cc1C | inconclusive [inhibitor, single point] | –
37 | COc1ccc(NC(=O)c2ccc(COCC(F)(F)F)cc2)cc1OC | – | inactive: 3.56%
38 | Nc1ccccc1N=c1ssnc1Cl | inconclusive [inhibitor, partial curve] | –
39 | O=C1c2ccccc2C(=O)c2c1ncn2-c1ccccc1 | – | inactive: 5.75%
40 | Cc1ccc2c(c1)N(CCCC(=O)NCCC1=CCCCC1)C(=O)CO2 | inconclusive [inhibitor, single point] | –
41 | Cc1ccc(S(=O)(=O)N/N=C2/CC(c3ccccc3)Oc3ccccc32)cc1[N+](=O)[O-] (configuration not stated) | inconclusive [activator, partial curve] | –
42 | Cc1ccc(NC(=S)Nc2ccc(S(=O)(=O)N3CCOCC3)cc2)cc1S(=O)(=O)N1CCOCC1 | inconclusive [inhibitor, partial curve] | –
43 | CCOC(=O)N1CCN(C(=O)C2CCN(S(=O)(=O)N3CCCC3)CC2)CC1 | – | inactive: 9.05%
44 | O=C(c1cc(=O)c2ccccc2o1)N1CCCc2ccccc21 | – | inactive: -2.47%
45 | Cc1oc(-c2nc3ccccc3n2C)cc1C(=O)c1ccccc1 | inconclusive [activator, single point] | –
46 | CCN1CCN(c2cc(C)c3cc(NC(=O)Cc4ccccc4OC)ccc3n2)CC1 | inconclusive [activator, single point] | –
47 | CCC(C)NC(=O)Nc1ccc2c(c1)N(C)C(=O)c1ccccc1S2 (configuration not stated) | inconclusive [inhibitor, single point] | –
